From patent publication US9969812B2, “Anti human Notch4 antibody” (Eisai R&D Management Co., Ltd., priority 2015, dated 2018)

Columns and labels:
[1] = biological target: T1, Human Notch4-NRR Fusion Protein (Homo sapiens, UniProt Q99466); test: Kinetic analysis, captured Human Notch4-NRR Fc fusion protein, humanized antibody injected; type: binding; details: Table 30, Human Notch4-NRR Fc fusion
T1 construct: Human Notch4-NRR domain Fc fusion proteins were expressed with a CHO cell line; Fc; made in house; host or cells: CHO cell line (antigen captured from culture supernatant)
T1 sequence (Q99466 1046-1445 limits assumed): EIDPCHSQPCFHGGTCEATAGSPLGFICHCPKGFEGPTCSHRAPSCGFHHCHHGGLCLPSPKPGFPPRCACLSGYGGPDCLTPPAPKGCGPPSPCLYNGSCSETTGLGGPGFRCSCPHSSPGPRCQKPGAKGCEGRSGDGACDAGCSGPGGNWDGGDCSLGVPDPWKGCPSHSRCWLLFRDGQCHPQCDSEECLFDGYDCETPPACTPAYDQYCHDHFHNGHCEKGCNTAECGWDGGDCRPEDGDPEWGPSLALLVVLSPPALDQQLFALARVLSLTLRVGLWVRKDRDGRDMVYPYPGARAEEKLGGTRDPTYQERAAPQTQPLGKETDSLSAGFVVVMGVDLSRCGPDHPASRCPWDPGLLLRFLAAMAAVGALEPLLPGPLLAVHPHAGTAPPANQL
Description: Kinetic analysis of further anti-Notch4 inhibitory humanized antibodies was carried out as follows. Human Notch4-NRR domain Fc fusion proteins were expressed with a CHO cell line. The antigen in the culture supernatant was captured by the anti-human Notch4 antibody fixed on a CM5 sensor chip that recognizes different epitopes of human Notch4. The humanized anti-human Notch4 antibody was then injected onto the sensor chip at various concentrations. The interaction and disassociation constants thereof were calculated according to manufacturer's instructions.
In the table below, e.g. the description “HK2L3 (Lys-)” means that the heavy chain variable region of the humanized anti-human Notch4 antibody employed in the experiment is the heavy chain variable region of the humanized anti-human Notch4 antibody heavy chain HK2 in Example 1, light chain variable region is the light chain variable region of the humanized anti-human Notch4 antibody light chain L3 in Example 1, and lysine (Lys) located at the C-terminal of the heavy chain of a common human antibody is deleted in this antibody. Those without the description “(Lys-)” mean that Lys located at the C-terminal of the heavy chain of the human antibody is not deleted.

[2] = system: Calu6 xenograft (human non-small cell lung cancer cell line); test: Calu6 xenograft model: antitumor effect and blood perfusion; type: in vivo, nude mice; details: 1, 3 or 10 mg/kg tail vein
Description: Human non-small cell lung cancer cell line Calu6 (ATCC number HTB-56) cultured in an EMEM culture medium comprising 10% FBS, MEM non-essential amino acids, sodium pyruvate, and penicillin/streptomycin was prepared to a concentration of 1.6×10^8 cells/mL with EMEM culture medium, and mixed with Matrigel™ (CORNING Cat#354234) at 1:1 to prepare a cell suspension of 8.0×10^7 cells/mL.
Antibody B was diluted immediately before administration so that vehicle solution (25 mM Histidine, 250 mM Sucrose, and 0.05% Tween80 (pH5.3)) and saline is 1:9 to obtain 0.1, 0.3, and 1.0 mg/mL evaluation specimens (1, 3, and 10 mg/kg administration group, respectively). […] Relative tumor volume RTV was calculated for each of the Control IgG group and Antibody B administration group with the following formula and shown in FIG. 2A. […]
Tumor blood perfusion was evaluated by determining the fluorescence by nucleus staining of cells around blood vessels due to a fluorescent dye (Hoechst) injected in the tail vein (Funahashi et al. (2014), Cancer Sci., 105(10), 1334-42.). […]
Tumor blood vessels of frozen sections were subjected to immunofluorescent staining with anti-CD31 antibody (FITC conjugated, BD Pharmingen Cat#553372), and Hoechst fluorescence of tumor blood vessel hotspots (5 per tumor) were photographed with BIOREVO fluorescence microscope (KEYENCE, BZ-9000). […]

[3] = system: Notch4; test: Notch4-GAL4 luciferase reporter assay, comparison with polyclonal antibody N-17; type: cell-based, human; details: 0.01-10 μg/mL, DLL4 stimulated reporter cells, 22 hours
Description: Next, signal inhibitory activities of polyclonal anti-human Notch4 antibody (Santa Cruz, SC8643, hereinafter N-17) and Antibody B were compared with Notch4-GAL4 luciferase reporter assay system.
Slide-A-Lyzer (Thermo scientific, 66333) was employed to perform dialysis at 4° C. for 8 hours in PBS in order to remove sodium azide contained in N-17. After concentrating the dialyzed N-17 solution with Amicon Ultra (Millipore, UFC503096), and the concentration was measured with a microspectrophotometer (Nano Drop, Thermo).
Recombinant human DLL4 (R&D Systems, 1506-D4-050/CF) was dissolved in PBS to prepare a 10 μg/mL solution (hereinafter DLL4 solution). […] The luciferase activity of the reporter cells were evaluated with Steady-Glo Assay System (Promega, E2510) as follows.
One hundred microliters of Steady-Glo solution was added to each well after culturing, stirred, and then left at room temperature for 30 minutes. Luminescence was measured with Multilabel Plate Reader (Envision 2102-0020, Perkin Elmer). Relative luminescence was calculated from the measured luminescence value by the following formula. Relative luminescence (%)=(Luminescence intensity of the specimen well−Average luminescence intensity of non-stimulated wells)/(Average luminescence intensity of control wells−Average luminescence intensity of non-stimulated wells)

B1: Antibody B: humanized anti-human Notch4 antibody, heavy chain variable region HK3, light chain variable region L3, C-terminal Lys deleted (antibody)
heavy: EVQLVESGGGLVQPGGSLRLSCAASGFTFSSYGMSWVRQAPGKGLELVATINSNGGRTYYPDSVKGRFTISRDNSKNTLYLQMGSLKAEDMAVYYCARDQGFAYWGQGTLVTVSSASTKGPSVFPLAPCSRSTSESTAALGCLVKDYFPEPVTVSWNSGALTSGVHTFPAVLQSSGLYSLSSVVTVPSSNFGTQTYTCNVDHKPSNTKVDKTVERKCCVECPPCPAPPAAAPSVFLFPPKPKDTLMISRTPEVTCVVVDVSHEDPEVQFNWYVDGVEVHNAKTKPREEQFNSTFRVVSVLTVVHQDWLNGKEYKCKVSNKGLPAPIEKTISKTKGQPREPQVYTLPPSREEMTKNQVSLTCLVKGFYPSDIAVEWESNGQPENNYKTTPPMLDSDGSFFLYSKLTVDKSRWQQGNVFSCSVMHEALHNHYTQKSLSLSPG
light: EIVMTQSPATLSVSPGERATLSCKASQDVGTAVAWYQQKPGQAPRLLIYWASTRHTGIPARFSGSGSGTEFTLTISSLQSEDFAVYYCQQYSSYPWTFGQGTKVEIKRTVAAPSVFIFPPSDEQLKSGTASVVCLLNNFYPREAKVQWKVDNALQSGNSQESVTEQDSKDSTYSLSSTLTLSKADYEKHKVYACEVTHQGLSSPVTKSFNRGEC
In the case of B1, the “Rmax1 (RU)” value [1] is reported as 26.2 RU, the “ka” value [1] is reported as 1.66e+06 M⁻¹ s⁻¹ and the “kd” value [1] is reported as 0.00071 s⁻¹. The “blood perfusion suppressive effect (Hoechst fluorescence area)” value ([2]; tumors sampled Day 8, vs Control IgG) was “significant blood perfusion suppressive effect at all dosages”, the “antitumor effect (relative tumor volume RTV)” value ([2]; twice a week, vs Control IgG 10 mg/kg) was “significant antitumor effect at all dosages” and the “Notch4 signal inhibitory activity (relative luminescence)” value [3] was “Signal inhibitory activity was confirmed”.
